# Several values for one entry are separate records, joined by “and”; a condition that tells them apart may be missing. Identical values can stand only once. Among all 420,000 compounds or so, about 64,000 (15%) were called active. The shares of active, inactive and inconclusive entries below differ from those in the screen. The call rests on the fitted dose curve; in most records, active means well fitted inhibition curve with a large enough effect; inconclusive means small, poorly fitted or top-dose-only effect; inactive means flat fitted curve, though single readings scatter. A potency beside an inconclusive call is a rough fit, not a confirmed value.
# Test: qHTS for Inhibitors of human tyrosyl-DNA phosphodiesterase 1 (TDP1): qHTS in cells in absence of CPT; further: nearly all actives have a fitted effect of over 55% in size
# Conditions: DT40 Tdp1-/- hTDP1 cells, no CPT, ATP luminescence, 48 h; activity change, negative = growth inhibition: at 46.2 µM (top of the series) unless noted
# Method in brief: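 Growth kinetics read by CellTiter-Glo luminescence after ≥48 hr at 37 °C. Cells: DT40 Tdp1-/- stably carrying human TDP1, 400 per well, compound exposure in the absence of CPT (DMSO vehicle).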
# On the % scale 0 is the no-effect control and ±100 the full control effect; potency means the concentration at half of the fitted maximal effect; tags describe the fitted curve by direction and shape.
SMILES,"activity change, negative = growth inhibition",Potency
O=C(Nc1ccc(N2CCN(Cc3ccccc3)CC2)cc1)c1ccccc1[N+](=O)[O-],inconclusive: -30.7% [inhibitor],
Cc1sc(NC(=O)/C=C/C(=O)O)c(C(N)=O)c1-c1ccc(C(C)(C)C)cc1,,"inconclusive: 29.1 µM [inhibitor, single point]"
NC(=S)N/N=C\c1ccccc1OCc1ccccc1,,"inconclusive: 23.1 µM [inhibitor, single point]"
Cc1cc(C)nc(SCC(=O)Oc2ccc3oc(=O)cc(C)c3c2)n1,,inactive
Cc1ccccc1CSc1ncc(CO)n1Cc1ccc(F)cc1,,"inconclusive: 23.1 µM [inhibitor, single point]"
CCOc1ccc(-c2cc(-c3nc(-c4ccc(OC)c(OC)c4)no3)[nH]n2)cc1,,active: 6.51 µM
CC(=O)Nc1ccc(S(=O)(=O)NCC2CCC(C(=O)NCCCN(C)Cc3ccccc3)CC2)cc1 (centres undefined),,inactive
COC(=O)C1C2CCC(C2)C1C(=O)OCC(=O)c1ccccc1 (centres undefined),,"inconclusive: 0.58 µM [inhibitor, full curve, poor fit]"
Clc1ccccc1-c1nccc(NCc2cccs2)n1,,"inconclusive: 25.9 µM [inhibitor, single point]"
C[C@H]1COC(=O)[C@H](Cc2ccc(F)cc2)C/C=C\C[C@H](CC(=O)NCCO)C(=O)N1,,inactive
COc1ccccc1CNC(=O)c1ccc(NC(=O)CC2SC(N3CCCC3)=NC2=O)cc1 (centres undefined),,inactive
NC(=S)N/N=C/c1ccc(-n2nncc2-c2ccc(Cl)cc2)cc1,,"inconclusive: 16.4 µM [inhibitor, single point]"
CC(C)CNC(=O)c1cccc(NC(=O)c2ccc(Cl)c([N+](=O)[O-])c2)c1,,active: 20.6 µM
S=C(Nc1ccccc1)N1CCCCCCC1,,"inconclusive: 29.1 µM [inhibitor, single point]"
Cc1ccc(-c2ccc(/C=C(\C#N)C(N)=S)o2)c([N+](=O)[O-])c1,,"inconclusive: 25.9 µM [inhibitor, single point]"
O=C(O)c1ccc(N/N=C/c2cc3ccccc3nc2Cl)cc1,,"inconclusive: 5.8 µM [inhibitor, partial curve]"
CS(=O)(=O)Nc1ccc(C2=NN(C(=O)c3ccccc3)C(c3cccs3)C2)cc1 (centres undefined),,"inconclusive: 29.1 µM [inhibitor, single point]"
COCCN(C(=O)COC(=O)/C=C/c1nc2ccccc2s1)c1c(N)n(Cc2ccccc2)c(=O)[nH]c1=O,,"inconclusive: 23.1 µM [inhibitor, single point]"
COc1cc(C(=O)N(c2ccc(C)c(C)c2)C2C=CS(=O)(=O)C2)cc(OC)c1OC (centres undefined),,"inconclusive: 23.1 µM [inhibitor, single point]"
CCN(C(=O)Cn1cnc2sc(C)c(S(=O)(=O)N3CCN(c4ncccn4)CC3)c2c1=O)c1ccccc1F,,"inconclusive: 25.9 µM [inhibitor, single point]"
c1ccc(OCc2nn3c(-c4ccco4)nnc3s2)cc1,,"inconclusive: 29.1 µM [inhibitor, single point]"
CCN1CCN(C(=O)C(C)Sc2nc3nc(C)cc(C)n3n2)CC1 (centres undefined),,inactive
COc1ccc(Cc2nc3ccccc3n2Cc2ccccc2F)cc1,,"inconclusive: 18.4 µM [inhibitor, single point]"

SMILES,"activity change, negative = growth inhibition",Potency
O=C(NCc1cccc(C(F)(F)F)c1)C1CC(c2ccccc2[N+](=O)[O-])=NO1 (centres undefined),,"inconclusive: 20.6 µM [inhibitor, single point]"
CCCCNC(=S)N(CCN(CC)CC)Cc1cc2cc3c(cc2[nH]c1=O)OCCO3,,"inconclusive: 18.4 µM [inhibitor, partial curve, poor fit]"
COc1cc(/C=C/C(=O)OCC(=O)NC(C)c2ccccc2)cc(OC)c1OC (centres undefined),,inactive
COC(=O)c1ccccc1NC(=O)CSc1nnc(COc2cccc(OC)c2)n1C,,"inconclusive: 23.1 µM [inhibitor, single point]"
CCCNC1(C(N)=O)CCN(Cc2ccccc2)CC1,,inactive
CC(=O)c1ccc(NC(=O)CC(c2cccs2)N2Cc3ccccc3C2=O)cc1 (centres undefined),,"inconclusive: 20.6 µM [inhibitor, partial curve, poor fit]"
NS(=O)(=O)c1cccc(NC(=O)c2cc(-c3cccs3)nc3ccccc23)c1,,active: 14.6 µM
CCc1ccc(NC(=O)Nc2ccc3c(c2)CCC3)cc1,,inactive
CCCOc1ccccc1C(=O)N(Cc1ccc(C)o1)C1CCS(=O)(=O)C1 (centres undefined),,"inconclusive: 18.4 µM [inhibitor, single point]"
CCc1cc2c(=O)c(-c3nc4ccccc4n3C)c(CCCC(=O)O)oc2cc1OC(=O)C(C)(C)C,,inactive
CC(CC(=O)N1CCN(c2cccc(Cl)c2)CC1)S(=O)(=O)c1ccc2c(c1)NC(=O)CO2 (centres undefined),,active: 2.31 µM
COc1ccc(C(=O)COC(=O)Cn2cnc3ccccc3c2=O)c(OC)c1,,"inconclusive: 29.1 µM [inhibitor, single point]"
O=C(c1ccccc1)n1nnc2ccccc21,,"inconclusive: 29.1 µM [inhibitor, single point]"
Cc1cc(Cl)ccc1OCC(=O)N(Cc1ccco1)Cc1ccco1,,active: 23.1 µM
COc1ccc(-c2cn3cccnc3n2)cc1NC(=O)c1cc(C)cc(C)c1,,"inconclusive: 29.1 µM [inhibitor, single point]"
Cc1ccc(S(=O)(=O)N2CN(CC3CCCO3)c3nc4ccccc4nc32)cc1 (centres undefined),,"inconclusive: 29.1 µM [inhibitor, single point]"
CC1=C(C(=O)Nc2ccccc2)C(c2coc3ccccc3c2=O)C2=C(CCCC2=O)N1 (centres undefined),,inactive
O=C(NCCCN1CCOCC1)c1cn(-c2ccccc2)nc1-c1ccc(F)cc1,,inactive
COc1ccc(CCNC(=O)CCc2c(C)c3cc4c(C)coc4c(C)c3oc2=O)cc1OC,,active: 8.2 µM
c1ccc(C(c2ccccc2)N2CCC3(CCNCC3)CC2)cc1,,active: 2.59 µM
Cc1c(C(=O)N2CCOCC2)c(S(=O)(=O)Nc2ccc(Br)cc2F)c(C)n1C,,"inconclusive: 29.1 µM [inhibitor, single point]"
CC(O)CNc1nc2c(c(=O)n(Cc3ccc(Cl)cc3)c(=O)n2C)n1C (centres undefined),,"inactive and inconclusive: 29.1 µM [inhibitor, single point]"
CN1OC[C@@H]2CN(C(=S)NCCc3ccccc3)[C@H](c3ccc(N4CCCCC4)cc3)C[C@@H]21,,"inconclusive: 18.4 µM [inhibitor, single point]"

SMILES,"activity change, negative = growth inhibition",Potency
CCOc1cc(CO)ccc1OCC(=O)N1CCCCC1,,inactive
COc1ccc(-c2nnc(C3CCN(S(=O)(=O)c4ccc(C)c(C)c4)CC3)o2)cc1,,active: 25.9 µM
COc1ccccc1CNC(=O)C/C(C)=N/NC(=O)COc1ccc(C)cc1Br,,active: 11.6 µM
Cc1nn(C)c(C(=O)Nc2ccc(Cn3cccn3)cc2)c1[N+](=O)[O-],,inactive
CCCN1C(=O)COc2ccc(-c3n[nH]c(=O)c4ccccc34)cc21,,"inconclusive: 20.6 µM [inhibitor, single point]"
C=CCn1c(SCC(=O)N2CCCC2)nc2scc(-c3cccs3)c2c1=O,,"inconclusive: 8.2 µM [inhibitor, partial curve]"
COC(=O)c1c(NC(=O)C2CCCCC2)sc2c1CC(C)(C)NC2(C)C,,"inconclusive: 16.4 µM [inhibitor, single point]"
O=C(c1ccc(Cl)cc1)N1CCOc2ccccc21,,"inconclusive: 29.1 µM [inhibitor, single point]"
Cc1ccc(S(=O)(=O)N(C)c2nonc2C)cc1,,inactive
CC(C)(C)c1ccc(/C=C/C(=O)Nc2cccnc2)cc1,,"inconclusive: 29.1 µM [inhibitor, single point]"
CC(=O)/C(=N/Nc1cccc(Cl)c1)Sc1nnc(C(O)c2ccccc2)n1-c1ccccc1 (centres undefined),,inactive
COc1ccc(NC(=O)CSc2nnc(C)n2C2CC2)cc1S(=O)(=O)N1CCOCC1,,inactive
CC(=O)OC[C@H]1O[C@@H](Sc2cccc3cccnc23)[C@H](OC(C)=O)[C@@H](OC(C)=O)[C@@H]1OC(C)=O,,"inconclusive: 23.1 µM [inhibitor, single point]"
CCOC(=O)c1c(C)nc2sc3c(=O)n(-c4ccc(OC)cc4)nnc3c2c1-c1ccc(OC)cc1,,"inconclusive: 10.3 µM [inhibitor, partial curve]"
CCOCCCn1c(SCC(=O)NCc2ccco2)nc2c(sc3ccccc32)c1=O,,"inconclusive: 23.1 µM [inhibitor, single point]"
Cc1ccc2[nH]c(C)c(/C=N/Nc3nc4ccccc4s3)c2c1,,"inconclusive: 29.1 µM [inhibitor, single point]"
CCOC(=O)C1CCN(CC(O)COC(CC)c2ccccc2)CC1 (centres undefined),,inactive
CCCc1ccc(-c2cc(NC(=O)CSc3nnc(N)s3)n(-c3ccccc3)n2)cc1,,active: 20.6 µM
CCOC(=O)c1[nH]c2ccc(C)cc2c1N=CN(CC)CC,,"inconclusive: 20.6 µM [inhibitor, partial curve]"
Fc1ccc(C(c2nnnn2C2CCCCC2)N2CCCC2)cc1 (centres undefined),,inactive
COc1ccc(N=C2CC(C)(C)CC(=O)/C2=C(/O)c2ccccc2)cc1,,"inconclusive: 29.1 µM [inhibitor, single point]"
COc1ccc(N=C2C(=Nc3ccc(OC)cc3)N(c3ccccc3)C(=S)N2C(=O)c2ccc(Cl)cc2)cc1,inconclusive: -20.7% [inhibitor],
CC1(C)Cc2c(sc(NC(=O)C(=O)N3CCOCC3)c2C#N)CO1,,"inconclusive: 25.9 µM [inhibitor, single point]"

# Reference: PubChem BioAssay AID686978 (National Center for Advancing Translational Sciences (NCATS), 2013)
